Target: BRD4 (BDII_E352-M457) (Homo sapiens, UniProt O60885)
Test: TR-FRET bromodomain binding assay, BRD4 BDII

Compound	Ki [nM]
CC(=O)NC[C@H]1C[C@H](Oc2cc(=O)n(C)cc2-c2cc(C(C)(C)O)ccc2Oc2c(C)cc(F)cc2C)C1 [Example 6, N-{[trans-3-({5-[2-(4-fluoro-2,6-dimethylphenoxy)-5-(2-hydroxypropan-2-yl)phenyl]-1-methyl-2-oxo-1,2-dihydropyridin-4-yl}oxy)cyclobutyl]methyl}acetamide]	7.62
CC(=O)N1CCC(=O)N1[C@H]1CC[C@H](Oc2cc(=O)n(C)cc2-c2cc(C(C)(C)O)ccc2Oc2c(C)cc(F)cc2C)CC1 [Example 112, 4-{[trans-4-(2-acetyl-5-oxopyrazolidin-1-yl)cyclohexyl]oxy}-5-[2-(4-fluoro-2,6-dimethylphenoxy)-5-(2-hydroxypropan-2-yl)phenyl]-1-methylpyridin-2(1H)-one]	7.11
COC(=O)N[C@H]1CC[C@H](Oc2cc(=O)n(C)cc2-c2cc(C(C)(C)O)ccc2Oc2c(C)cc(F)cc2C)CC1 [Example 4, methyl [trans-4-({5-[2-(4-fluoro-2,6-dimethylphenoxy)-5-(2-hydroxypropan-2-yl)phenyl]-1-methyl-2-oxo-1,2-dihydropyridin-4-yl}oxy)cyclohexyl]carbamate]	2.44
Cc1cc(F)cc(C)c1Oc1ccc(C(C)(C)O)cc1-c1cn(C)c(=O)cc1O[C@H]1C[C@@H](C(=O)O)C1 [Example 97, cis-3-({5-[2-(4-fluoro-2,6-dimethylphenoxy)-5-(2-hydroxypropan-2-yl)phenyl]-1-methyl-2-oxo-1,2-dihydropyridin-4-yl}oxy)cyclobutane-1-carboxylic acid]	58.3
Cc1cc(F)cc(C)c1Oc1ccc(C(C)(C)O)cc1-c1cn(C)c(=O)cc1O[C@H]1CC[C@H](NC(=O)CC(C)(C)CO)CC1 [Example 118, N-[trans-4-({5-[2-(4-fluoro-2,6-dimethylphenoxy)-5-(2-hydroxypropan-2-yl)phenyl]-1-methyl-2-oxo-1,2-dihydropyridin-4-yl}oxy)cyclohexyl]-4-hydroxy-3,3-dimethylbutanamide]	5.83
CCc1c(-c2cc(C(C)(C)O)ccc2Oc2c(C)cc(F)cc2C)c(O[C@H]2CC[C@H](N3CCCC3=O)CC2)cc(=O)n1C [Example 33, 6-ethyl-5-[2-(4-fluoro-2,6-dimethylphenoxy)-5-(2-hydroxypropan-2-yl)phenyl]-1-methyl-4-{[trans-4-(2-oxopyrrolidin-1-yl)cyclohexyl]oxy}pyridin-2(1H)-one]	376
Cc1cc(F)cc(C)c1Oc1ccc(C(C)(C)O)cc1-c1cn(C)c(=O)cc1O[C@H]1CC[C@@H](C#N)CC1 [Example 68, cis-4-({5-[2-(4-fluoro-2,6-dimethylphenoxy)-5-(2-hydroxypropan-2-yl)phenyl]-1-methyl-2-oxo-1,2-dihydropyridin-4-yl}oxy)cyclohexane-1-carbonitrile]	34.7
C=CCCCC(=O)N[C@H]1CC[C@H](Oc2cc(=O)n(C)cc2-c2cc(C(C)(C)O)ccc2Oc2c(C)cc(F)cc2C)CC1 [Example 36, N-[trans-4-({5-[2-(4-fluoro-2,6-dimethylphenoxy)-5-(2-hydroxypropan-2-yl)phenyl]-1-methyl-2-oxo-1,2-dihydropyridin-4-yl}oxy)cyclohexyl]hex-5-enamide]	3.31

Further compounds by falling Ki, results first:

Ki [nM]	Compound
368	CC(=O)NC1CCC(C)(Oc2cc(=O)n(C)cc2-c2cc(C(C)(C)O)ccc2Oc2c(C)cc(F)cc2C)CC1 (stereo not drawn) [Example 84, N-[trans-4-({5-[2-(4-fluoro-2,6-dimethylphenoxy)-5-(2-hydroxypropan-2-yl)phenyl]-1-methyl-2-oxo-1,2-dihydropyridin-4-yl}oxy)-4-methylcyclohexyl]acetamide]
6.33	Cc1cc(F)cc(C)c1Oc1ccc(C(C)(C)O)cc1-c1cn(C)c(=O)cc1O[C@H]1CC[C@H](CNC(=O)OC(C)(C)C)CC1 [Example 15, tert-butyl [trans-4-({5-[2-(4-fluoro-2,6-dimethylphenoxy)-5-(2-hydroxypropan-2-yl)phenyl]-1-methyl-2-oxo-1,2-dihydropyridin-4-yl}oxy)cyclohexyl]methylcarbamate]
4.83	Cc1cc(F)cc(C)c1Oc1ccc(C(C)(C)O)cc1-c1cn(C)c(=O)cc1O[C@H]1CC[C@H](NC(=O)CCO)CC1 [Example 49, N-[trans-4-({5-[2-(4-fluoro-2,6-dimethylphenoxy)-5-(2-hydroxypropan-2-yl)phenyl]-1-methyl-2-oxo-1,2-dihydropyridin-4-yl}oxy)cyclohexyl]-3-hydroxypropanamide]
4.44	Cc1cccc(C)c1Oc1ccc(C(C)(C)O)cc1-c1cn(C)c(=O)cc1NC1CCN(C(=O)OC(C)(C)C)C1 (stereo not drawn) [Example 11, tert-butyl 3-({5-[2-(2,6-dimethylphenoxy)-5-(2-hydroxypropan-2-yl)phenyl]-1-methyl-2-oxo-1,2-dihydropyridin-4-yl}amino)pyrrolidine-1-carboxylate]
